# The other results are listed elsewhere or left out.
# B1: LecB LY19 (Pseudomonas aeruginosa) (protein)
# chain: MATQGVFTLPANTQFGVTAFANSAGTQTVNVQVNNETVATFTGQSTNNGIIGSKVLNSGGGGKVQILVSVNGRSSDLVSAQVILANELNFALVGSEDSTDNDYNDAVVVINWPLG
# How the values were obtained:
# Assay in all cases: glycan array binding signal (z-score within array); higher = stronger binding
# Conditions in all cases: glycan notation: IUPAC condensed, linker removed
# [1] = target: Gal(a1-3)Gal(b1-4)GlcNAc(b1-2)Man
# Method in brief: (§1)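 The Consortium for Functional Glycomics database supplied 3228 glycan arrays, of which those lacking an available protein sequence were dropped. The binding signal, a within-array Z-score, was averaged across arrays of the same protein sequence and across linkers. Negative scores can be read as non-binding.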
# [2] = target: Gal(a1-3)Gal(b1-4)GlcNAc(b1-2)Man(a1-3)[Gal(a1-3)Gal(b1-4)GlcNAc(b1-2)Man(a1-6)]Man(b1-4)GlcNAc(b1-4)GlcNAc
# Method in brief: as §1
# [3] = target: Gal(a1-3)Gal(b1-4)GlcNAc(b1-3)GalNAc
# Method in brief: as §1
# [4] = target: Gal(a1-3)Gal(b1-4)GlcNAc(b1-6)GalNAc
# Method in brief: as §1
# [5] = target: Gal(a1-3)Gal(b1-4)[Fuc(a1-3)]GlcNAc
# Method in brief: as §1
# [6] = target: Gal(a1-3)Gal(b1-4)[Fuc(a1-3)]GlcNAc(b1-2)Man(a1-3)[Gal(a1-3)Gal(b1-4)[Fuc(a1-3)]GlcNAc(b1-2)Man(a1-6)]Man(b1-4)GlcNAc(b1-4)GlcNAc
# Method in brief: as §1
# Gal(a1-3)GalNAc = target: Gal(a1-3)GalNAc
# Method in brief: as §1
# [7] = target: Gal(a1-3)[Gal(a1-4)]Gal(b1-4)GlcNAc
# Method in brief: as §1
# [8] = target: Gal(a1-4)Gal(b1-3)GlcNAc(b1-2)Man(a1-3)[Gal(a1-4)Gal(b1-3)GlcNAc(b1-2)Man(a1-6)]Man(b1-4)GlcNAc(b1-4)GlcNAc
# Method in brief: as §1
# Gal(a1-4)Gal(b1-4)Glc = target: Gal(a1-4)Gal(b1-4)Glc
# Method in brief: as §1
# Gal(a1-4)Gal(b1-4)GlcNAc = target: Gal(a1-4)Gal(b1-4)GlcNAc
# Method in brief: as §1
# [9] = target: Gal(a1-4)Gal(b1-4)GlcNAc(b1-2)Man(a1-3)[Gal(a1-4)Gal(b1-4)GlcNAc(b1-2)Man(a1-6)]Man(b1-4)GlcNAc(b1-4)GlcNAc
# Method in brief: as §1
# [10] = target: Gal(a1-4)Gal(b1-4)GlcNAc(b1-3)Gal(b1-4)Glc
# Method in brief: as §1
# Gal(a1-4)GlcNAc = target: Gal(a1-4)GlcNAc
# Method in brief: as §1
# Gal(a1-6)Glc = target: Gal(a1-6)Glc
# Method in brief: as §1
# Gal(b1-2)Gal = target: Gal(b1-2)Gal
# Method in brief: as §1
# Gal(b1-3)Gal = target: Gal(b1-3)Gal
# Method in brief: as §1
# Gal(b1-3)Gal(b1-4)GlcNAc = target: Gal(b1-3)Gal(b1-4)GlcNAc
# Method in brief: as §1
# Gal(b1-3)GalNAc = target: Gal(b1-3)GalNAc
# Method in brief: as §1
# [11] = target: Gal(b1-3)GalNAc(a1-3)[Fuc(a1-2)]Gal(b1-4)Glc
# Method in brief: as §1
# [12] = target: Gal(b1-3)GalNAc(a1-3)[Fuc(a1-2)]Gal(b1-4)GlcNAc
# Method in brief: as §1
# Gal(b1-3)GalNAc(b1-3)Gal = target: Gal(b1-3)GalNAc(b1-3)Gal
# Method in brief: as §1
# [13] = target: Gal(b1-3)GalNAc(b1-3)Gal(a1-4)Gal(b1-4)Glc
# Method in brief: as §1
# [14] = target: Gal(b1-3)GalNAc(b1-4)Gal(b1-4)Glc
# Method in brief: as §1
# [15] = target: Gal(b1-3)GalNAc(b1-4)[Neu5Ac(a2-3)]Gal(b1-4)Glc
# Method in brief: as §1
# Gal(b1-3)GlcNAc = target: Gal(b1-3)GlcNAc
# Method in brief: as §1
# [16] = target: Gal(b1-3)GlcNAc(a1-3)Gal(b1-4)GlcNAc
# Method in brief: as §1
# [17] = target: Gal(b1-3)GlcNAc(a1-6)Gal(b1-4)GlcNAc
# Method in brief: as §1
# Gal(b1-3)GlcNAc(b1-2)Man = target: Gal(b1-3)GlcNAc(b1-2)Man
# Method in brief: as §1
# [18] = target: Gal(b1-3)GlcNAc(b1-2)Man(a1-3)[Gal(b1-3)GlcNAc(b1-2)Man(a1-6)]Man(b1-4)GlcNAc(b1-4)GlcNAc
# Method in brief: as §1
# [19] = target: Gal(b1-3)GlcNAc(b1-2)Man(a1-3)[Gal(b1-3)GlcNAc(b1-2)Man(a1-6)]Man(b1-4)GlcNAc(b1-4)[Fuc(a1-6)]GlcNAc
# Method in brief: as §1
# [20] = target: Gal(b1-3)GlcNAc(b1-2)Man(a1-3)[GlcNAc(b1-4)][Gal(b1-3)GlcNAc(b1-2)Man(a1-6)]Man(b1-4)GlcNAc(b1-4)GlcNAc
# Method in brief: as §1
# [21] = target: Gal(b1-3)GlcNAc(b1-2)[Gal(b1-3)GlcNAc(b1-6)]Man(a1-6)[Gal(b1-3)GlcNAc(b1-2)Man(a1-3)]Man(b1-4)GlcNAc(b1-4)GlcNAc
# Method in brief: as §1
# [22] = target: Gal(b1-3)GlcNAc(b1-3)Gal(b1-3)GlcNAc
# Method in brief: as §1
# [23] = target: Gal(b1-3)GlcNAc(b1-3)Gal(b1-4)Glc
# Method in brief: as §1
# [24] = target: Gal(b1-3)GlcNAc(b1-3)Gal(b1-4)GlcNAc
# Method in brief: as §1
# [25] = target: Gal(b1-3)GlcNAc(b1-3)Gal(b1-4)GlcNAc(b1-2)Man(a1-3)[Gal(b1-3)GlcNAc(b1-3)Gal(b1-4)GlcNAc(b1-2)Man(a1-6)]Man(b1-4)GlcNAc(b1-4)GlcNAc
# Method in brief: as §1
# [26] = target: Gal(b1-3)GlcNAc(b1-3)Gal(b1-4)GlcNAc(b1-2)[Gal(b1-3)GlcNAc(b1-3)Gal(b1-4)GlcNAc(b1-6)]Man(a1-6)[Gal(b1-3)GlcNAc(b1-3)Gal(b1-4)GlcNAc(b1-2)Man(a1-3)]Man(b1-4)GlcNAc(b1-4)[Fuc(a1-6)]GlcNAc
# Method in brief: as §1
# [27] = target: Gal(b1-3)GlcNAc(b1-3)Gal(b1-4)GlcNAc(b1-3)Gal(b1-4)GlcNAc(b1-2)[Gal(b1-3)GlcNAc(b1-3)Gal(b1-4)GlcNAc(b1-3)Gal(b1-4)GlcNAc(b1-6)]Man(a1-6)[Gal(b1-3)GlcNAc(b1-3)Gal(b1-4)GlcNAc(b1-3)Gal(b1-4)GlcNAc(b1-2)Man(a1-3)]Man(b1-4)GlcNAc(b1-4)[Fuc(a1-6)]GlcNAc
# Method in brief: as §1
# [28] = target: Gal(b1-3)GlcNAc(b1-3)Gal(b1-4)GlcNAc(b1-6)[Gal(b1-3)GlcNAc(b1-3)]Gal(b1-4)Glc
# Method in brief: as §1
# [29] = target: Gal(b1-3)GlcNAc(b1-3)Gal(b1-4)[Fuc(a1-3)]GlcNAc
# Method in brief: as §1
# [30] = target: Gal(b1-3)GlcNAc(b1-3)Gal(b1-4)[Fuc(a1-3)]GlcNAc(b1-6)[Gal(b1-3)GlcNAc(b1-3)]Gal(b1-4)Glc
# Method in brief: as §1
# [31] = target: Gal(b1-3)GlcNAc(b1-3)GalNAc
# Method in brief: as §1
# [32] = target: Gal(b1-3)GlcNAc(b1-6)Gal(b1-4)GlcNAc
# Method in brief: as §1
# [33] = target: Gal(b1-3)GlcNAc(b1-6)GalNAc
# Method in brief: as §1
binder,measurement,setting,value
B1,glycan array binding signal (z-score),[1],-0.551
same,glycan array binding signal (z-score),[2],-0.522
same,glycan array binding signal (z-score),[3],-0.55
same,glycan array binding signal (z-score),[4],-0.456
same,glycan array binding signal (z-score),[5],0.633
same,glycan array binding signal (z-score),[6],1.37
same,glycan array binding signal (z-score),Gal(a1-3)GalNAc,-0.543
same,glycan array binding signal (z-score),[7],-0.55
same,glycan array binding signal (z-score),[8],-0.235
same,glycan array binding signal (z-score),Gal(a1-4)Gal(b1-4)Glc,-0.53
same,glycan array binding signal (z-score),Gal(a1-4)Gal(b1-4)GlcNAc,-0.465
same,glycan array binding signal (z-score),[9],-0.53
same,glycan array binding signal (z-score),[10],-0.557
same,glycan array binding signal (z-score),Gal(a1-4)GlcNAc,-0.546
same,glycan array binding signal (z-score),Gal(a1-6)Glc,-0.53
same,glycan array binding signal (z-score),Gal(b1-2)Gal,-0.514
same,glycan array binding signal (z-score),Gal(b1-3)Gal,-0.53
same,glycan array binding signal (z-score),Gal(b1-3)Gal(b1-4)GlcNAc,-0.55
same,glycan array binding signal (z-score),Gal(b1-3)GalNAc,-0.413
same,glycan array binding signal (z-score),[11],-0.512
same,glycan array binding signal (z-score),[12],-0.492
same,glycan array binding signal (z-score),Gal(b1-3)GalNAc(b1-3)Gal,-0.551
same,glycan array binding signal (z-score),[13],-0.534
same,glycan array binding signal (z-score),[14],-0.542
same,glycan array binding signal (z-score),[15],-0.485
same,glycan array binding signal (z-score),Gal(b1-3)GlcNAc,-0.552
same,glycan array binding signal (z-score),[16],-0.546
same,glycan array binding signal (z-score),[17],-0.55
same,glycan array binding signal (z-score),Gal(b1-3)GlcNAc(b1-2)Man,-0.509
same,glycan array binding signal (z-score),[18],-0.201
same,glycan array binding signal (z-score),[19],0.173
same,glycan array binding signal (z-score),[20],-0.306
same,glycan array binding signal (z-score),[21],-0.314
same,glycan array binding signal (z-score),[22],-0.554
same,glycan array binding signal (z-score),[23],-0.352
same,glycan array binding signal (z-score),[24],-0.553
same,glycan array binding signal (z-score),[25],-0.429
same,glycan array binding signal (z-score),[26],0.152
same,glycan array binding signal (z-score),[27],0.828
same,glycan array binding signal (z-score),[28],-0.489
same,glycan array binding signal (z-score),[29],0.092
same,glycan array binding signal (z-score),[30],0.2
same,glycan array binding signal (z-score),[31],-0.544
same,glycan array binding signal (z-score),[32],-0.55
same,glycan array binding signal (z-score),[33],-0.547

# — the supplement of paper PMC8728848
